Data taken from PubChem BioAssay AID1963576 (National Center for Advancing Translational Sciences (NCATS), 2024).
Hit rate of the full screen: of about 46,000 compounds, about 60 (0.1%) were called active. Not shown: some 3% with an inconclusive outcome. Calls follow the shape of the dose curve; as a rule, active = well fitted inhibition curve with a large enough effect; inconclusive = small, poorly fitted or top-dose-only effect; inactive = no such curve, though single readings can be large or run the other way. The list shows a part of the results.

Experiment: Primary qHTS assay for Inhibitors of ovarian cancer metastasis using an organotypic tumor microenvironment (TME) model. Also: nearly all actives have a fitted effect of over 65% in size.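 As to activity change, negative = inhibition: plate controls were DMSO wells for no effect and tomatine positive control wells for full effect.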
Conditions: SKOV3ip1-GFP adhesion/invasion on 3D omental model, fluorescence; series mostly up to 45.8 µM; activity change, negative = inhibition: at the top concentration
Method in brief: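 Primary human omental fibroblast/mesothelial 3D culture pre-formed 48 h. SKOV3ip1-GFP cells added with compounds (0.36-46 umol/L), incubated 2 h RT/16 h 37 C, fixed; GFP cells quantified at 488/509 nm.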

Activity change, negative = inhibition, inactive:
CCOc1ccc(C(=O)Nc2ccc(-c3cc4ccccc4oc3=O)cc2)cc1Br -21.2%
COc1ccccc1Cn1cc(C(=O)c2ccccc2)c(=O)c2cc(OC)c(OC)cc21 5.86%
COc1ccc(-c2cc(C(=O)Nc3cc(C(F)(F)F)ccc3Cl)no2)cc1 2.35%
Cc1nn(CCC(=O)Nc2ccc(Cl)cc2)c(C)c1S(=O)(=O)N1CCCCC1 8.02%
CCOc1ccccc1CNC(=O)c1cnn(-c2ccc(C)cc2)c1-n1cccc1 29.3%
O=C(NCc1ccccc1)c1cccn1-c1nnc(N2CCCCC2)s1 -14.5%
Cc1ccc(CSc2nc3cccnc3n2Cc2ccc(C(=O)NC3CC3)cc2)cc1 3.58%
Cc1ccc(-n2ncc3c(=O)n(Cc4cccc(Cl)c4)cnc32)cc1C -1.69%
CCc1cccc(NC(=O)C2CCN(S(=O)(=O)c3ccc(Br)s3)CC2)c1 -1.12%
CCCn1c2ccccc2c2cnn(CC(=O)NCCc3ccc(S(N)(=O)=O)cc3)c(=O)c21 4.42%
COc1ccc(NC(=O)CCCOc2cc(=O)n(C)c3ccccc23)c(OC)c1 -2.7%
Cc1ccc(NC(=O)Cn2cnc3c(oc4ccccc43)c2=O)cc1Cl -22.3%
COCCNC(=O)CSc1c(C)cnc2c1c(=O)n(C)c(=O)n2C -13.7%
Cc1ccc(-n2c(=O)c3ccc(C(=O)NCc4ccco4)cc3n(Cc3ccccc3Cl)c2=O)cc1 -14.2%
Brc1cccc(-c2nnn3c2nc(NC2CCCCC2)c2ccccc23)c1 2.5%
CCOc1ccc(NC(=O)c2cc3cc4ccc(C)cc4nc3o2)cc1 -4.08%
COc1ccccc1C(=O)Nc1nnc(SCc2cc(=O)c3ccccc3[nH]2)s1 -7.9%
COc1ccc2nc3sc(C(=O)NCCc4ccc(Cl)cc4)cc3cc2c1 16.6%
CCS(=O)(=O)c1ncc(Cl)c(C(=O)Nc2ccc(S(=O)(=O)N(C)c3ccccc3)cc2)n1 -12.2%
Cc1oc2c(c1C(=O)Nc1ccc(OC(F)(F)F)cc1)C1=NCCN1C=N2 6.57%
CCc1ccc(NC(=O)CCc2c(C)nn(-c3ccc(N4CCCC4)nn3)c2C)cc1 4.25%
COc1ccc(-c2nc3ccccc3o2)cc1NC(=O)COc1cc(C)cc(C)c1 -4.88%
Cc1cc(=O)[nH]c2nnc(SCC(N)=O)n12 2.71%
COc1ccc(C(=O)c2c(N)c(C(=O)Nc3ccccc3Cl)c3ccccn23)cc1 1.68%
O=C(COc1ccc2oc3c(c2c1)CCCC3)Nc1cccc(Br)c1 -0.597%
COc1ccc(NC(=O)CCS(=O)(=O)c2cc3c4c(c2)CCN4C(=O)CC3)c(OC)c1 0.826%
CCCCc1ccc(C(=O)c2c(N)c(C(=O)Nc3cccc(OC)c3)c3ccccn23)cc1 2.02%
Cc1nnc(N2C(=O)c3oc4ccccc4c(=O)c3C2c2cccc(OCCC(C)C)c2)s1 (stereo unspecified) -13.7%
CC1CCN(C(=O)Cn2cc(SCC(=O)NCc3ccc(F)cc3)c3ccccc32)CC1 -18.1%
Cn1c(=O)c2cc(C(=O)NCCCN3CCN(c4ccc(F)cc4)CC3)sc2c2ccccc21 -5.15%
O=[N+]([O-])c1cc(-c2nc(-c3ccccc3)no2)ccc1NCc1ccco1 6.86%
Cc1ccc(-c2noc(-c3ccc(N4CCOCC4)c([N+](=O)[O-])c3)n2)cc1 -10.4%
COc1ccc(NC(=O)CSc2nc3ccccc3nc2N2CCOCC2)c(OC)c1 -0.627%
COc1ccc(C(=O)/C=C/c2cn(CC(O)CN3CCCCCC3)c3ccccc23)cc1OC (stereo unspecified) -15.1%
COCCCNC(=O)c1c(NC(=O)Cc2coc3cc(C)ccc23)sc2c1CCCC2 11.2%
Cc1ccc(NC2(c3ccccc3)C(=O)c3ccccc3C2=O)cc1F -4.65%
COc1ccc(Cn2c(SCC(=O)N3CCN(c4ccc(F)cc4)CC3)nc3ccccc32)cc1 -5.6%
Cc1ccc2scc(N3CCCCC3C)c(=O)c2c1 (stereo unspecified) 3.47%
Cc1ccccc1CNC(=O)CN1C(=O)CCCc2ccccc21 8.04%
COc1ccc(CCNC(=O)CCCn2c(=O)c3ccccc3n(CC(=O)Nc3ccccc3C)c2=O)cc1OC 27.9%
Cc1ccc(C2CC(=O)N(Cc3ccc(F)cc3)c3c2c(C)nn3-c2nc(C)cc(C)n2)cc1 (stereo unspecified) -26.2%
Cc1ccsc1CN(C(=O)COc1ccccc1Cl)C1CCS(=O)(=O)C1 (stereo unspecified) -7.14%
COCCNC(=O)Cn1c(-c2cccs2)cc2cc(Cl)ccc21 -4.23%
CCc1ccccc1NC(=O)CN(c1ccccc1OC)S(=O)(=O)c1ccc(C)cc1 -1.41%
CC1CCN(S(=O)(=O)c2ccc3c(c2)N(CC(=O)NCCCOC(C)C)C(=O)CO3)CC1 9.75%
Cc1sc(C2C(C#N)=C(N)N(c3ccc(Cl)cc3)C3=C2C(=O)CCC3)cc1CN1CCOCC1 (stereo unspecified) 1.01%
CCC(C(=O)NC1CCCCC1)n1c(SCc2ccccc2F)nc2ccncc21 (stereo unspecified) -8.2%
COCCNC(=O)CN1C(=O)COc2ccc(S(=O)(=O)N3CCCCCC3)cc21 6.15%
COc1ccc(C2C(=O)N(C3CCCCCC3)CC(=O)N2CCc2ccc(Cl)cc2)cc1OC (stereo unspecified) -3.77%
CCOC(=O)CSc1nc2sc3c(c2c(=O)n1Cc1ccccc1)CC(C(C)C)OC3 (stereo unspecified) 44.4%
Cc1nn(C(C)C(=O)NCCc2ccccc2)c(=O)c2c1sc1ccccc12 (stereo unspecified) 2.96%
CCc1ccc(NC(=O)CSc2ccc(-c3sc(-c4ccccc4)nc3C)nn2)cc1 -7.42%
COc1ccc(NC(=O)Cn2c(=O)n(CCCC(=O)NCc3ccccc3Cl)c(=O)c3ccccc32)c(OC)c1 18.7%
Cc1cc(C)c(NC(=O)CSc2nc3ccccc3c3nc(-c4ccccc4)nn23)c(C)c1 -6.25%
CCc1ccc(C(c2ccccc2)c2c(C)[nH]c3ccccc23)s1 (stereo unspecified) -3.06%
Cc1cccc(CNC(=O)c2ccc3c(c2)N(C)CCS3)c1 -0.286%
CCOc1ccc(C2C(=O)N(C3CCCCC3)CC(=O)N2Cc2ccc(F)cc2)cc1OC (stereo unspecified) -8.16%
COc1ccc(N2CCN(c3ncccc3-c3nc(-c4ccccc4C)no3)CC2)cc1 -2.66%
COc1ccc(CNCc2c(C(=O)O)c(C)n(Cc3ccccc3C)c2C)cc1OC 3.53%
CCOC(=O)c1sc2ccccc2c1S(=O)(=O)Nc1cc(OC)ccc1OC -2.16%
COc1ccc(Cn2c(SCc3ccc(C(=O)NC4CCCCC4)cc3)nc3ccncc32)cc1 3%
CCc1cccc(C)c1Nc1c(-c2ccc(F)cc2)nc2sccn12 18.1%
O=C1c2[nH]nc(-c3ccccc3O)c2C(c2cccc(OCc3ccccc3)c2)N1CCCO (stereo unspecified) 2.01%
Fc1ccc(N2CCN(Cc3nnc(-c4ccccc4Cl)o3)CC2)cc1 -17%
COc1ccccc1N1CCN(c2nc3c(S(=O)(=O)c4ccccc4)nnn3c3ccc(Cl)cc23)CC1 1.32%
CCOC(=O)c1scc(-c2ccccc2)c1S(=O)(=O)Nc1ccccc1OC 2.19%
N#Cc1nc(-c2ccc(COc3ccc(Cl)cc3)o2)oc1N1CCCCC1 0.0826%
Cc1ccc(CNc2nc(-c3ccco3)nn2C(=O)c2ccccc2[N+](=O)[O-])cc1 10.9%
Cc1ccc2c(=O)c(C(=O)c3ccccc3)cn(CC(=O)NCc3ccccc3)c2n1 2.76%
CCNc1cc(NC2CCC(O)CC2)nc(Nc2ccc3c(ccn3Cc3ccccc3)c2)n1 (stereo unspecified) -6.8%
CC(C)OCCCNC(=O)c1cn(C)c2ccc(S(=O)(=O)N(C)C3CCCCC3)cc2c1=O 0.0783%
COc1ccc(S(=O)(=O)N2CCC(Oc3cccc(C(F)(F)F)c3)CC2)cc1OC 5.84%
COc1ccc(N2CC(C(=O)NCCS(=O)(=O)N3CCN(c4ccccc4)CC3)CC2=O)cc1 (stereo unspecified) 3.73%
Cc1ccc(-n2c(=O)c3c(C)c(C(=O)N(C)C)sc3n(CC(=O)N(C)c3ccccc3)c2=O)cc1C -2.06%
CCOC(=O)c1cc(-c2ccccc2)n(CCCC(=O)Nc2ccc(C)c(Cl)c2)c1C -4.15%
CN(CC(=O)Nc1ccc(OC(F)(F)F)cc1)S(=O)(=O)c1ccc2c(c1)CCC(=O)N2 2.05%
Cc1c(C(=O)N2CCCC2)oc2c1-c1nn(CC(=O)NCc3ccc(OC(C)C)cc3)cc1CC2 -20.9%

outcome, inactive:
COc1ccc(Cn2c(C(=O)O)c(CNCc3ccco3)c3ccc(C)cc32)cc1
Cc1ccc(C)c(NC(=O)Nc2cc3c(cc2N2CCCCC2)n(C)c(=O)n3C)c1
COc1cc(OC)c(NC(=O)C2=C(C)C(=O)OC23CCN(C(C)=O)CC3)cc1Cl
Cn1c(NCc2cccc(Cl)c2)nc2ccccc21
CCN(C(=O)c1ccc(C(=O)N(CC)c2ccccc2C)cc1)c1ccccc1C
C=Cc1ccc(CN2C(=O)N(c3ccc(C)c(C)c3)S(=O)(=O)c3ccccc32)cc1
Cc1nn(-c2ccc(N3CCOCC3)nn2)c(C)c1CCC(=O)NCc1ccc(Cl)cc1
COc1ccc(NS(=O)(=O)c2cnc(N)nc2)cc1Cl
CC(=O)c1ccc(Oc2ncnc3c2oc2ccccc23)cc1
COc1cc(C(=O)NCCc2sc(-c3ccc(C)cc3)nc2C)cc(OC)c1OC
Cc1ccccc1CN1C(=O)c2ccccc2S(=O)c2ccc(C(=O)N3CCOCC3)cc21 (stereo unspecified)
Cc1ccc(C(=O)c2oc3ccccc3c2NC(=O)COc2ccccc2C)cc1
CCC(C)NC(=O)CCCn1c(=O)c2cccn2c2ccccc21 (stereo unspecified)
CCN(Cc1ccccc1)c1nc2c(S(=O)(=O)c3ccccc3)nnn2c2ccc(Cl)cc12
COc1ccc(CNS(=O)(=O)c2ccc(C(=O)N(C)C)s2)cc1
CCOc1ccc(NC(=O)CSc2ncc(S(=O)(=O)c3ccc(F)c(C)c3)c(=O)[nH]2)cc1
Cc1ccc(C)c(NC(=O)CSc2nc3nccnc3c(=O)n2CCc2c[nH]c3ccccc23)c1
Cc1ccc2occ(-c3cc(-c4ccccc4)nc4c3COc3ccccc3-4)c(=O)c2c1
CCc1cccc(NC(=O)c2cnc(N3CCOCC3)c3ccccc23)c1
